Assay results as given in patent US20200407462A1 (MINERVA BIOTECHNOLOGIES, published 2020).

Biological target: T1, C-10 peptide (C-10 PSMGFR)
T1 construct: also called PSMGFR C-10
T1 peptide: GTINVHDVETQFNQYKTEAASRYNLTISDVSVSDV
Test: binding to peptides

binding result: no binding
B1: huMNC2-scFv-Fc (Fc fusion)
chain: DAAQPAEVQLVESGGGLVKPGGSLRLSCAASGFTFSGYAMSWVRQAPGKGLEWVSTISSGGTYIYYPDSVKGRFTISRDNAKNSLYLQMNSLRAEDTAVYYCARLGGDNYYEYFDVWGKGTTVTVSSGGGGSGGGGSGGGGSDIVLTQSPASLAVSPGQRATITCRASKSVSTSGYSYMHWYQQKPGQPPKLLIYLASNLESGVPARFSGSGSGTDFTLTINPVEANDTANYYCQHSRELPFTFGGGTKVEIKRT[human IgG1 Fc cut from this listing]
notes: For IHC it was biotinylated through its Fc region; also called humanized single chain form of MNC2
